Reference: PubChem BioAssay AID504832 (National Center for Advancing Translational Sciences (NCATS), 2011)
About 18,000 (5.8%) of roughly 310,000 compounds were called active. This list was built around the results that the source calls inconclusive (neither active nor inactive); the mix of calls is not that of the screen. Calls follow the shape of the dose curve; as a rule, active = well fitted inhibition curve with a large enough effect; inconclusive = small, poorly fitted or top-dose-only effect, or another doubt; inactive = no such curve, though single readings can be large or run the other way. Potencies of inconclusive entries are left out as doubtful fits.
% is scaled to controls: 0 for no effect and ±100 for the full control effect; potency is read from the fitted curve at half-maximal effect; tags tell the direction and shape of the fitted curve.

Test: Primary qHTS for delayed death inhibitors of the malarial parasite plastid, 48 hour incubation
Details: P. falciparum luciferase growth in erythrocytes; series mostly up to 28.7 µM; activity change, negative = inhibition: at the top concentration
Method in brief: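 Here the parasites carry a stable luciferase gene and grow inside erythrocytes in Albumax-based RPMI medium with compound for one erythrocytic cycle. Activity is scored as loss of luminescent signal.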
In the case of `O=C(c1ccccc1Br)N(Cc1ccccc1)c1ccccc1`, the Potency is reported as inconclusive [inhibitor, single point]. For `CCOC(=O)c1[nH]c(CSc2nnnn2-c2ccccc2C)c(C(=O)OCC)c1C`, the Potency was active: 10.4 µM. In the case of `CCOC(=O)C1CCN(C2=C(NS(=O)(=O)c3ccc(Cl)cc3)C(=O)c3ccccc3C2=O)CC1`, the Potency is reported as inconclusive [inhibitor, full curve]. In the case of `CCC1CCCCN1Cc1nc2c(c(=O)n(C)c(=O)n2C)n1CCCc1ccccc1` (centres undefined), the Potency is reported as inconclusive [inhibitor, single point]. With `O=C(Nc1ccc(Cl)cc1)O/N=C(\c1ccccc1)c1ccccn1` the “activity change, negative = inhibition” value was inactive: 15.1%. With `CC1Cc2nc(SCC(=O)N3CCCc4ccccc43)n(C)c(=O)c2S1` (centres undefined) the Potency was inconclusive [inhibitor, single point]. With `CC1CCN(S(=O)(=O)c2ccc(S(=O)(=O)N3CCC4(CC3)OCCO4)cc2)CC1` the “activity change, negative = inhibition” value was inactive: 0.321%. For `Cc1ccc(S(=O)(=O)Nc2cnn(-c3ccccc3)c(=O)c2Cl)cc1`, the Potency was inconclusive [inhibitor, single point]. In the case of `CC1(C)CN(c2ccc(F)cc2)C1=O`, the “activity change, negative = inhibition” value is reported as inactive: 21.7%. In the case of `CN(Cc1ccccc1)c1nc2c(c(=O)[nH]c(=O)n2C)n1Cc1ccccc1F`, the Potency is reported as inconclusive [inhibitor, single point]. In the case of `Cc1ccc(C)c(NC(=O)N2CCc3ccccc3C2)c1`, the “activity change, negative = inhibition” value is reported as inactive: 184%. For `N=c1c(S(=O)(=O)c2ccc(Cl)cc2)cc2c(=O)n3ccccc3nc2n1CC1CCCO1` (centres undefined), the Potency was inconclusive [inhibitor, single point]. In the case of `CC(C)NC(=O)c1onc(CSc2ccc(F)cc2)c1C(=O)NC(C)C`, the Potency is reported as active: 4.65 µM. With `O=[N+]([O-])c1ccc(N2CCN(S(=O)(=O)c3ccc4ccccc4c3)CC2)cc1NCC1CCCO1` (centres undefined) the Potency was inconclusive [inhibitor, full curve]. In the case of `C=C(C)CSc1nc2ccccc2c(=O)n1-c1c(C)n(C)n(-c2ccccc2)c1=O`, the Potency is reported as inconclusive [inhibitor, single point]. In the case of `C/C(=N\NC(=S)NC1CCCCC1)c1cccs1`, the Potency is reported as inconclusive [inhibitor, single point]. In the case of `COc1ccc(NC(NC(=O)c2ccc(OC)cc2)C(Cl)(Cl)Cl)cc1` (centres undefined), the Potency is reported as inconclusive [inhibitor, single point]. For `CC1(c2ccccc2)CC(c2ccccc2)=Nc2nonc2N1` (centres undefined), the Potency was active: 1.47 µM. For `CC1(C)Cc2c(ccc3ccccc23)C(c2cc3ccccc3oc2=O)=N1`, the Potency was inconclusive [inhibitor, partial curve].
